# In PubChem BioAssay AID1347165 (National Center for Advancing Translational Sciences (NCATS), 2019):
# The campaign covered roughly 220,000 compounds. About 5,700 (2.6%) were called active. Inconclusive results, whose numbers are uncertain, are shown with a selection of clear calls. Calls follow the shape of the dose curve; as a rule, active = well fitted inhibition curve with a large enough effect; inconclusive = small, poorly fitted or top-dose-only effect; inactive = no such curve, though single readings can be large or run the other way. A potency beside an inconclusive call is a rough fit, not a confirmed value.
# Biological target: Lysine-specific demethylase 5B (Homo sapiens) (UniProt Q9UGL1)
# UniProt Q9UGL1, sequence (Q9UGL1 whole entry, looked up): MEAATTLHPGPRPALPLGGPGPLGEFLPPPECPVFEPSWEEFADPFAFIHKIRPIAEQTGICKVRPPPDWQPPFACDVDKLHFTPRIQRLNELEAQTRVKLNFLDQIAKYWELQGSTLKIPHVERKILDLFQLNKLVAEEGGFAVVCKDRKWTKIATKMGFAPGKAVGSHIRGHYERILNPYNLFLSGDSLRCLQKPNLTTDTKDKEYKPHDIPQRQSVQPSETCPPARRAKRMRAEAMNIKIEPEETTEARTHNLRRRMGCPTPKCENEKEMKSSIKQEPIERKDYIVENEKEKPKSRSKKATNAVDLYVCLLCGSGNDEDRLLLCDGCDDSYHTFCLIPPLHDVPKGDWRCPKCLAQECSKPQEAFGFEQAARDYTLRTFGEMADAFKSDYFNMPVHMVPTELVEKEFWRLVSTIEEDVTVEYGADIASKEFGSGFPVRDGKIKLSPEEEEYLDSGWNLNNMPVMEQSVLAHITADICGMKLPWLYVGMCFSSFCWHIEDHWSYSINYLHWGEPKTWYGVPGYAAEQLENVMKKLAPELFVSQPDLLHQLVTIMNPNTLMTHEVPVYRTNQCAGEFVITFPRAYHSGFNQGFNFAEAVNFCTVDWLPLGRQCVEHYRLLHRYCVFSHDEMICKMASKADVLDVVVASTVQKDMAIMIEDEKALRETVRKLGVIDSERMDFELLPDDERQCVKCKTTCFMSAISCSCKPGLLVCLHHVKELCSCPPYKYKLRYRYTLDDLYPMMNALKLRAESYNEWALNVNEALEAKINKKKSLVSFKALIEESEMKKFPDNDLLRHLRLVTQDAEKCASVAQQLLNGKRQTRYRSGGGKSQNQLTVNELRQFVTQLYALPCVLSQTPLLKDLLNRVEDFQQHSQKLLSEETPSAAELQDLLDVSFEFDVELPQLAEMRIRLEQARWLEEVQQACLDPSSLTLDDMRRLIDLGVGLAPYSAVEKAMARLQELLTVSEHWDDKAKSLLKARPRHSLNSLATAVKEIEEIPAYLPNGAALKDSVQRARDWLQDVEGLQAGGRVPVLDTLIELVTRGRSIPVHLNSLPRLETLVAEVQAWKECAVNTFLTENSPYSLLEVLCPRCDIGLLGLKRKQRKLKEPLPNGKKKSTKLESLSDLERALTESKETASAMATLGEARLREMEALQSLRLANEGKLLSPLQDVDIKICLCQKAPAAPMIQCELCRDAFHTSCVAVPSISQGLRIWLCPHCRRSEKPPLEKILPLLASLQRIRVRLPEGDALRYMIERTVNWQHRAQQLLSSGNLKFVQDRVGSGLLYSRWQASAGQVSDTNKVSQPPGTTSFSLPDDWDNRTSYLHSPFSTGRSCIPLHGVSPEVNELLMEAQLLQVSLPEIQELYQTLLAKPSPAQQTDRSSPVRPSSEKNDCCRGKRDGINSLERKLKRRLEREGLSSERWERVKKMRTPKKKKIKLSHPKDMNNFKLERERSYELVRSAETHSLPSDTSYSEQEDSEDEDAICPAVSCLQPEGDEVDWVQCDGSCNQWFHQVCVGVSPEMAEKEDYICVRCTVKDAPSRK
# Experiment: Primary screen for KDM5B Histone Demethylases FDH-coupled qHTS; also: nearly all actives have a fitted effect of over 70% in size; as to activity change, negative = inhibition: 0% is about no effect
# Details: FDH-coupled NADH fluorescence (FDH is formaldehyde dehydrogenase); activity change, negative = inhibition: at 57.7 µM (top of the series) unless noted
# Outline: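 Coupled FDH/NAD⁺ fluorescence readout. KDM5BΔAP 200 nM final; compound titration, 10 min RT preincubation; substrate mix 12.5 µM H3K4me3, 25 µM 2-OG, 50 µM Fe(II), 100 µM ascorbate, 0.25 mM NAD⁺, 0.25 U/mL FDH; ΔRFU over 30 min.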
# Potency is read from the fitted curve at half-maximal effect; tags tell the direction and shape of the fitted curve.
SMILES,Potency,"activity change, negative = inhibition"
O=C(CCC[C@H]1NC[C@@H]2C[C@H]1CN(Cc1ccccc1)C2)N1CCN(c2ncccn2)CC1,"inconclusive: 22.4 µM [inhibitor, single point]",
Cc1cccc(NC(c2nnc(-c3ccccc3)o2)c2ccc(F)cc2Cl)c1C (stereo unspecified),,inconclusive: -41.2% [inhibitor]
Cc1oc2c(c(C)cc3oc(=O)c(CC(=O)NCCc4ccc(Cl)cc4)c(C)c32)c1C,"inconclusive: 1 µM [inhibitor, full curve, poor fit]",
Cc1ccc([S+](=O)([O-])c2nnn3c2nc(NCc2ccncc2)c2ccccc23)cc1,"inconclusive: 3.55 µM [inhibitor, full curve, poor fit]",
COCCOc1ccc2c(n1)CCN(C(=O)COc1ccccc1)C2,,inactive: -28.6%
CCCc1ccc(S(=O)(=O)N2CCC(c3c[nH]c4c(C)cccc34)CC2)cc1,"inconclusive: 14.1 µM [inhibitor, partial curve]",
Cc1ccc(CCC(=O)N2CC[C@@](O)(C3CCOCC3)[C@H](C)C2)cc1,,inactive: -24.6%
O=C(Nc1cccc(F)c1)N1Cc2[nH]cnc2C[C@H]1c1nc(-c2ccncc2)no1,,inactive: -10.1% [at 86.2 µM]
COc1cc(C(=O)NCc2nc3ccccc3n2C)cc(OC)c1OC,,inactive: -12%
O=S(=O)(c1ccc(Br)cc1)N1CCn2cccc2C1c1ccc(Br)cc1 (stereo unspecified),"inconclusive: 14.1 µM [inhibitor, partial curve, poor fit]",
Cn1c(C(=O)Nc2cccc(Cl)c2)cc2c(=O)n(C)c3ccccc3c21,"inconclusive: 2.51 µM [inhibitor, full curve, poor fit]",
Cc1ccc(CNc2nc3nc(C)c(Cl)c(C)n3n2)cc1,"inconclusive: 3.55 µM [inhibitor, partial curve, poor fit]",
COCC(=O)N[C@H]1CCN2C(=O)c3cc(-c4cccc(C)c4C)ccc3NC(=O)[C@@H]2C1,"inconclusive: 28.2 µM [inhibitor, single point]",
COc1ccc(CNC(=O)[C@@H]2Cc3nc[nH]c3CN2C(=O)NC(C)C)cc1,"inconclusive: 31.6 µM [inhibitor, partial curve, poor fit]",
N#Cc1cccc(CN2Cc3[nH]cnc3C[C@H]2c2nc(-c3ccc(OC(F)(F)F)cc3)no2)c1,"inconclusive: 28.2 µM [inhibitor, single point]",
Cc1cc2c(cc1S(=O)(=O)N1CCC(C(=O)N3CCCCC3)CC1)OC(C)C(=O)N2 (stereo unspecified),,inactive: 17.6%
Cc1nn(C)c2c1c(C(F)(F)F)cc(=O)n2C(C)C(=O)NCc1ccccc1 (stereo unspecified),"inconclusive: 25.1 µM [inhibitor, partial curve, poor fit]",
COc1ccc(C(CNC(=O)c2ccc3c(c2)OCCO3)N2CCOCC2)cc1 (stereo unspecified),,inactive: -0.0196%
COc1ccc(NC(=O)N2Cc3[nH]cnc3C[C@H]2c2nc(-c3ccc(OC)cc3)no2)cc1,"inconclusive: 28.2 µM [inhibitor, partial curve, poor fit]",
CC(=O)Oc1ccc(C2C3=C(CC(C)(C)CC3=O)Nc3cc4c(cc32)OCCO4)cc1 (stereo unspecified),"inconclusive: 28.2 µM [inhibitor, partial curve, poor fit]",
COc1ccc(C(=O)NCC(c2cccs2)S(=O)(=O)c2cccs2)cc1 (stereo unspecified),,inconclusive: -32.1% [inhibitor]

SMILES,Potency,"activity change, negative = inhibition"
COc1ccc(CNC(=O)c2sccc2-c2ccccc2)cc1OC,,inactive: -9.76%
Cc1ccc(CN2CCc3nc(C(=O)Nc4cccnc4)oc3CC2)cc1,,inactive: -23.1% [at 86.2 µM]
COCCCn1c(=O)/c(=C\c2ccccc2OC(F)F)s/c1=C(/C#N)C(=O)NCCOC,"inconclusive: 39.8 µM [inhibitor, single point]",
CC1=C(C(=O)OC2CCCCCC2)C(c2c(Cl)cccc2Cl)CC(=O)N1 (stereo unspecified),,inactive: -21.1%
O=C(NCc1nnc2c(-c3nc(C4CC4)no3)cccn12)c1cc(F)ccc1Cl,active: 28.2 µM,
CCNC(=O)Cc1c[nH]c2ncc(-c3ccccc3C)cc12,"inconclusive: 28.2 µM [inhibitor, partial curve, poor fit]",
Cc1c(-c2ccc(F)cc2)[nH]c2ccc(CNC(=O)CCN3CCCO3)cc12,active: 31.6 µM,
Cc1ccc(S(=O)(=O)Nc2nc3n(n2)C(c2ccc(Cl)cc2)C=C(c2ccccc2)N3)cc1 (stereo unspecified),"inconclusive: 28.2 µM [inhibitor, partial curve, poor fit]",
CC(=O)Nc1ccc2cc3ccc(NC(C)=O)cc3nc2c1,"inconclusive: 28.2 µM [inhibitor, partial curve, poor fit]",
c1cc(CN2CCc3c(sc4ncnc(N5CCOCC5)c34)C2)ccn1,"inconclusive: 15.8 µM [inhibitor, partial curve, poor fit]",
CC1(C)CC(=O)C/C(=N/NC(=O)c2ccccc2)C1,"inconclusive: 2 µM [inhibitor, full curve, poor fit]",
Cc1ccc(C(=O)NC2CCN(c3cc(-c4ccccc4)[nH]n3)C2)s1 (stereo unspecified),"inconclusive: 10 µM [inhibitor, partial curve]",
CCOc1ccc(C(=O)Nc2ccc3ncnc(N4CCCCC4)c3c2)cc1,"inconclusive: 31.6 µM [inhibitor, single point]",
Cc1cc(C)c2c(CC(=O)NCc3ccccc3)coc2c1,,inactive: 1.36%
CCCn1c(N)c(-c2csc(Nc3ccc(F)cc3)n2)c(=O)n(C)c1=O,"inconclusive: 22.4 µM [inhibitor, single point]",
CCc1cccc(C)c1NC(=O)COC(=O)c1ccc(C2Nc3ccccc3S(=O)(=O)N2)cc1 (stereo unspecified),,inactive: 3.08%
O=C(NC1CC1)c1c[nH]c2cccnc12,"inconclusive: 126 µM [inhibitor, partial curve]",
COc1ccc(C(=O)Nc2cc(C(C)C)c(O)c(S(=O)(=O)c3ccc(Cl)cc3)c2C)cc1,"inconclusive: 39.8 µM [inhibitor, single point]",
CC(C)CNC(=O)c1ccnc(-c2nnc3ccc(Nc4ccccc4)nn23)c1,"inconclusive: 31.6 µM [inhibitor, single point]",
COc1ccc(-c2cnc3n[nH]c(-c4sccc4C)c3n2)cc1OC,"inconclusive: 39.8 µM [inhibitor, single point]",
